Results from the supplement of paper PMC3334620.
The full ranking holds about 33,000 sequences; the median of “E-score (-0.5 to 0.5)” is about -0.056, and the highest 2% start at about 0.38. This is one part of the list.

These sequences were tested against Stb4 (UniProt P50104) (assay: PBM E-score (8-mer binding enrichment) (E-score (-0.5 to 0.5)); higher = stronger / more preferred TF binding; most listed sequences are background and not binding sites). Conditions: protein concentration: 200 nM; construct: GST-DNA-binding domain.
Outline: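 Full-length yeast transcription factors or their DNA-binding domains, GST-tagged and expressed with PURExpress, were applied at about 100-200 nM to universal all-10-mer Agilent arrays. These arrays had been made double-stranded by primer extension on fresh or once-stripped slides. Detection used fluorescent anti-GST, normalisation used masliner, and E-scores for ungapped eight-base words pooled with reverse complements came from the Universal PBM Analysis Suite.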

Sequence	PBM E-score
GCCGCAAC	0.042
GGTGCCCA	-0.147
ATCAACGC	-0.151
AGTACGTG	-0.188
AAAATCCC	0.0969
GCTGACAA	-0.0045
CTTGCAAC	-0.342
AAGGTATG	-0.137
ATTCGAGA	-0.165
ACTTGTGA	-0.217
ACCCACCC	0.214
GGTAGTAC	0.0665
GACATCAA	0.0594
CTCCCGCA	0.266
AACACAAG	-0.184
TGAAAACA	0.0347
AGAAAGCA	0.00056
ACTCCGTC	0.0768
GCCCGAAC	0.262
CTCTCGGC	0.397
AAGTGGGA	0.0186
CCTCAACC	-0.0938
AGCTAGCC	0.04
GGAAGGAA	0.167
AGTCCCTC	-0.109

Sequence	PBM E-score
ACACTTAT	-0.0992
AATCCTCT	-0.217
ACCGTACT	0.0893
CACTTCAG	-0.188
ACCGTTGA	-0.137
CTGACCCC	-0.00228
CCACTCCC	0.143
ATCTATAC	0.0424
CGGCTTGC	0.216
AACACAGC	-0.00529
GGTTGGGA	0.0463
CATATCGA	-0.0475
CAGGCGGC	0.067
CTCAACAC	-0.0725
ACATTCGG	0.363
GAACAGCC	0.0331
CAGGTAGG	-0.242
CACTTGGA	-0.087
AGAGTCAC	-0.28
ACTAGTAA	-0.158
AGGCCCTA	-0.144
AGATACTA	-0.0256
CACTACGC	-0.149
ATCCAGGA	-0.182
GAGCAAAA	-0.158

Sequence	PBM E-score
CTCCCTCC	0.0694
CAACTGCG	-0.123
AACCATAC	0.0322
TGACTACA	-0.298
TCTAGGAA	-0.178
GAGAAAGA	0.123
GACTGAAA	0.0179
AGCCATCA	-0.0871
CGAAAACC	0.237
CGTTAACC	-0.058
AATATTAT	0.0902
AATTCGCC	0.094
GCGGGCAA	0.00911
ATAGCTGC	-0.0493
CCCAACTA	-0.101
CCCGAGAG	0.385
CTACGTGA	-0.227
GGTTGGCA	-0.0928
CTAAGTCA	-0.0795
CATTCGTC	-0.0104
AGCGCTAC	-0.148
CTGCCATA	-0.0926
AAAGAGGG	-0.224
GTAGATGA	0.0218
TGGATCCA	-0.0343

Sequence	PBM E-score
GGCGAAAC	0.0246
AATCTTAG	-0.0841
AGTGTTAT	0.00574
GATCCCAC	-0.00608
ATTTGCGC	-0.0378
ATGATCCA	-0.032
ACTACGTA	-0.0935
ACACCATA	-0.025
CCCATCTA	-0.134
GCGTTTGA	-0.223
AATATTGT	0.0146
AGCATATC	0.136
TAACCATA	-0.19
AATCTAAC	0.0435
CCAACATC	0.145
ACACGTCT	-0.0819
AAACGAGC	-0.153
CTACACCA	-0.22
ATTCACCA	-0.00837
CTTGTACA	-0.0352
AGTTTAAT	-0.111
AATCTAAG	-0.107
TCTTGGCA	-0.134
AAACCGCT	-0.0918
CCTGAGCC	-0.149

Sequence	PBM E-score
ACATGGTC	-0.193
AACGACAG	-0.329
GACGCCAA	-0.155
GAAGAGTA	0.0567
CCAAGCTA	-0.215
AAATAGAG	0.0304
CGGGAACA	0.374
CGTTCTGC	0.0264
ACGTGTGG	-0.223
CTCGGCAC	0.451
AGTTGTGG	-0.214
ACCAAGCC	-0.139
AAGGCTAC	-0.0344
CCCAGAAA	0.0332
TAGCCGGA	0.384
GGGCAAAC	0.0685
ACCCTGCC	0.0104
GGCTCGCA	-0.0748
GCACAATA	-0.206
ATTGGAAG	-0.0546
GATGCGAA	-0.0357
ATGTATCC	0.237
CCGATTTA	0.352
ACCTAAGA	-0.255
AGGAATAA	-0.145

Sequence	PBM E-score
ACAAATCT	-0.0774
ATACCATG	-0.0942
GATCAAGC	-0.0193
AGGGGTGG	0.0122
CAAGACTG	-0.128
CACACGTG	-0.151
GAGCACCA	-0.18
CCGCCAAG	-0.059
CATCCGTA	0.329
CGCCTGGC	-0.132
ACAAGACG	-0.142
TGTCGAAA	-0.175
CGAACTGC	0.0971
CGACTTAA	-0.0314
AGAAACTG	-0.0995
CTCCTGCC	-0.00319
GGCAATAA	0.0285
ATCTAGTG	-0.271
AGTAAGGG	0.0462
CAGATTGA	0.0111
GGTGGAGA	-0.201
CAATAGTG	0.11
CTGGTGAC	-0.143
GGAAAGCA	0.195
AATCTCCG	0.322

Sequence	PBM E-score
TGCCTGAA	-0.178
CTCGGCCC	0.343
CTCCGATC	0.229
ACTCACAG	-0.294
AGGAATAG	-0.0913
CATTTCAA	-0.252
GAGGCATA	0.0573
GCTGGAAA	-0.0832
ACTACTGA	-0.177
GAAGGTGA	0.174
AAAACTTC	0.0195
GGGATGAA	0.0679
AGTGCTTC	0.0383
AGCATTAC	-0.028
ACTGCCGG	0.302
AAAGTATC	0.172
ATAAACCA	-0.0367
ATCGCCTC	-0.157
AGTAACAT	0.0195
AGACGTAG	-0.274
ATGGACGC	-0.0281
AGGGCACA	-0.19
